Results as given in PMC4336329 (PLoS ONE, 2015).
Out of some 310,000 compounds screened, about 14,000 (4.5%) showed an effect of 50% or more. The effect is printed as a negative number. Some of the results follow.

These compounds were tested against human ether-à-go-go-related gene (hERG) potassium channel (human, UniProt Q12809) (assay: primary screen, population patch clamp on CHO cells stably expressing hERG).
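Also: peak tail current of the secondary pulse compared with the same well before compound.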

Chain of human ether-à-go-go-related gene (hERG) potassium channel (Q12809 whole entry, looked up): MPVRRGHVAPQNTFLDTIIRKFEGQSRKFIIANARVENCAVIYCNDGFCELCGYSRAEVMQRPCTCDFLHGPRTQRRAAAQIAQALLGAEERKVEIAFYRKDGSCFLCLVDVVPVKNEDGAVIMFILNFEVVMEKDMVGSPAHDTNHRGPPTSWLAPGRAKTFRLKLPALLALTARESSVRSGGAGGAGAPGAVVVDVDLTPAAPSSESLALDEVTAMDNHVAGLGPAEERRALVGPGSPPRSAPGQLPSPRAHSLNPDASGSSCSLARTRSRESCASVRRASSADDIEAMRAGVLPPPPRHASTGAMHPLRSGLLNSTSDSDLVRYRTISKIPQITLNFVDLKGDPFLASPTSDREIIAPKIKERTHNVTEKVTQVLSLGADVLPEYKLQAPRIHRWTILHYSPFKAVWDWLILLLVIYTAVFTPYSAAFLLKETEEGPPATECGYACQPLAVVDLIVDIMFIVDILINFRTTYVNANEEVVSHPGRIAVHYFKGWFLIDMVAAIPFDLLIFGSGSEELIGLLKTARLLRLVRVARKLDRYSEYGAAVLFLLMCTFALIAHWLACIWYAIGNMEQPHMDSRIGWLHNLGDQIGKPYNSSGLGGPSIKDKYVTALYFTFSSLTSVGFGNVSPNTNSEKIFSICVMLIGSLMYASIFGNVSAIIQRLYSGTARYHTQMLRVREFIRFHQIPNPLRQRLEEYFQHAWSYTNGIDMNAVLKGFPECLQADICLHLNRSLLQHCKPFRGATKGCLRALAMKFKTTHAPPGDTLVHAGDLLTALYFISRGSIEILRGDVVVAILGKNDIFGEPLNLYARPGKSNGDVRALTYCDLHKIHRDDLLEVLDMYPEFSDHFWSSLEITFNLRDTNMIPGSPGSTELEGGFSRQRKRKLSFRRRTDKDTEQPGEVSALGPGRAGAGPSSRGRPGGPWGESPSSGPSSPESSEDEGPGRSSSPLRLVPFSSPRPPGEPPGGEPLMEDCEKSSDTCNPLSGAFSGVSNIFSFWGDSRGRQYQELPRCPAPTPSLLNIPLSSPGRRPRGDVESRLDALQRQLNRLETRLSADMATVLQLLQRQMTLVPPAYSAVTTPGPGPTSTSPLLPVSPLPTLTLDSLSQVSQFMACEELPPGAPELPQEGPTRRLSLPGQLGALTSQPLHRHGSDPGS

SMILES | hERG current change (%, negative = inhibition) at 10uM [%]
C=CCn1c(COc2ccc(F)cc2)nnc1SCC(=O)N1CC(=O)Nc2ccccc21 | -33
Cl.Cn1cc(C(=O)NCN2CCCCC2)c2ccccc21 | 17
COCCN1C=C2C(=O)C(C)(OC(=O)CCC(=O)OC)C(=O)C=C2C=C1C1CC1 (stereo not drawn) | 14.4
CCCn1nc(NC(=O)c2cccs2)c2cc3ccc(C)cc3nc21 | 14.8
COc1ccc(-c2cnnc(N/N=C/c3ccc(OC)c(OC)c3)n2)cc1 | -35.7
COc1ccc(N2CC(C(=O)NCc3nnnn3-c3ccc(C)c(C)c3)CC2=O)cc1 (stereo not drawn) | -19.6
CCCn1c(SCC(=O)N2CCCCC2)nnc1-c1ccco1 | 6.93
CCCCCCCCCCCCCCCC[N+](C)(C)CCN(Cc1ccc(OC)cc1)c1ncccn1.[Br-] | -75
COc1ccc(OC)c(/C=N/NC(=O)CNC(=O)c2ccc(S(=O)(=O)N3CCCC3)cc2)c1 | -5.56
CCOc1ccc(-c2nnn(CC(=O)Nc3cc(OC)cc(OC)c3)n2)cc1OCC | 16.6
C/C=C/Cn1c(SCc2ccccc2)nc2c1c(=O)[nH]c(=O)n2C | -11.2
CCn1nc(NS(=O)(=O)c2ccccc2)c2cc3ccccc3nc21 | 20.2
CCCCn1c(SCC(=O)NCc2ccccc2)nc2ccc(N3CCOCC3)cc2c1=O | -13.9
O=C(Nc1ccc(F)cc1F)N1CCC(c2nc3ccccc3o2)CC1 | -37.6
C=CCc1c(C)[nH]c(=O)[nH]c1=O | 11.4
CCc1cccc(NC(=O)c2ccc(Br)o2)c1 | -46.1
CCOC(=O)C1CCN(C(=O)CN2C(=O)c3cccnc3Oc3ccc(C)cc32)CC1 | -25.8
Cc1ccccc1NC(=O)C1CC(=O)OC12CCOC(C)(C)C2 (stereo not drawn) | 10.9
CCOC(=O)C1=C(C)NC(=O)C(C#N)C1c1ccncc1 (stereo not drawn) | -4.46

SMILES | hERG current change (%, negative = inhibition) at 10uM [%]
Cc1cccc(C)c1NC(=O)/C(C#N)=C/c1ccsc1 | -13.2
Cc1cc(C)n2nc(C(=O)NNC(=O)c3ccccc3)nc2n1 | 9.18
CCCN(CCC)S(=O)(=O)c1ccc(C(=O)Nc2cccnc2)cc1 | -11.2
COCC1CCCCC1OS(N)(=O)=O (stereo not drawn) | 5.38
O=C(Nc1ccc(C(=O)N2CCCCC2)cc1)c1ccc([N+](=O)[O-])cc1 | -1.34
Cc1ccc(CNC(=O)CSc2ncccn2)cc1 | 5.97
O=C1C=CC2C(c3ccc4c(c3)OCO4)CC1N2Cc1ccccc1 (stereo not drawn) | 3.63
Oc1ccc(C[C@@H]2CNCCN2CCc2cccc3ccccc23)cc1 | -64.5
O=C(O)C1CCCCC1C(=O)NCCCCc1ccccc1 (stereo not drawn) | -14.6
Cc1cc(C(=O)N/N=C/c2ccc(-c3ccc([N+](=O)[O-])cc3Cl)o2)n[nH]1 | 1.04
CC1Cc2nc(SCC(=O)N3CCCc4ccccc43)n(C)c(=O)c2S1 (stereo not drawn) | -11.7
COc1ccc(NC(=O)C2CC2)cc1NS(=O)(=O)c1ccc(F)cc1 | 4.9
CCC1=[N+](CC(=O)c2ccc(Br)cc2)CCn2c(C)ccc21.[Br-] | -6.76
O=C(NCCNCCO)C1(C(F)(F)F)C/C(=C\CCO)CCCO1 (stereo not drawn) | -1.27
CCOC(=O)C1=CCN(Cc2ccccc2)CC1.Cl | 12.8
COc1cc(-n2c(=O)c3ccccc3n(Cc3cccnc3)c2=O)cc(OC)c1OC | 5.1
COc1cccc(C(=O)NC2CC3CCCC(C2)N3CC(=O)Nc2ccccc2)c1.Cl (stereo not drawn) | -54.4
COc1ccc2nc(N3CCOCC3)cc(C)c2c1 | -0.452
CCCOc1ccc(CC(=O)NCc2ccco2)cc1OC | 8.13

SMILES | hERG current change (%, negative = inhibition) at 10uM [%]
CC1=C(C(=O)OCC2CCCO2)C(c2ccccc2OC(C)C)C2=C(CC(c3ccco3)CC2=O)N1 (stereo not drawn) | -57.8
O=C(O)C(Cc1ccccc1)N1C(=O)c2c(Cl)c(Cl)c(Cl)c(Cl)c2C1=O (stereo not drawn) | 3
Cc1ccccc1C(=O)N1CCN(S(=O)(=O)c2ccccc2)CC1 | -5.44
Cn1c(=O)c(C(=O)NCc2ccccc2Cl)c(O)c2ccccc21 | 24.6
CCOc1ccc(NC(=O)CSc2nc(C)c3c(c2C#N)CCCC3)cc1 | -10.6
CC(C)NS(=O)(=O)c1ccc(CCC(=O)N2CCC(C(N)=O)CC2)cc1 | 12.1
O=C(COc1ccccc1Cl)NNC(=O)C1CCCO1 (stereo not drawn) | -9.45
COc1ccc(O)c(/C=N/NC(=O)CSc2nnc(C)n2-c2ccccc2)c1 | -7.02
COc1ccc2[nH]c(=O)c(CN(Cc3cccs3)Cc3nnnn3C(C)(C)C)cc2c1 | -46.9
CCc1ccc(-c2nc3ccc(Br)cc3c(C(=O)O)c2C)s1 | 19.1
CC(C)CCNC(=S)Nc1ccccc1F | -0.715
O=C(CCN1C(=O)c2cccc3cccc(c23)C1=O)N1CCN(Cc2ccc3c(c2)OCO3)CC1 | -29.2
O=C(NN=C1CCCC1)c1cc(-c2ccccc2)n[nH]1 | 9.37
CCC(C)NC(=O)Cn1c(=O)n(CCCCCC(=O)Nc2ccccc2)c(=O)c2sccc21 (stereo not drawn) | -40.5
CCCC(=O)NCCCc1nc2ccccc2[nH]1 | 25.4
Cc1ccc(NC(=S)Nc2ccc3cn[nH]c3c2)cc1 | 2.94
COc1ccc(C(=O)C2CN(c3ccccc3)CC2c2ccc(Cl)cc2)cc1 (stereo not drawn) | -4.84
CCn1cc(C(=O)NCCCOC)c2cc(OC)c(OC)cc2c1=O | 0.546
CCN(c1ccc(OC)cc1)S(=O)(=O)c1ccc(-c2ccc(=O)[nH]n2)o1 | 6.45
